Laboratory results as given in US11479587B2, “Cationic intrinsically disordered antimicrobial peptides” (priority 2016, dated 2022).
In brackets after ≈: the same amount, converted by molar mass. Like-named read-outs stand apart in the source and are kept apart here. At least one peptide structure holds a part that was inferred or is arguable (an end, a ring closure or a residue). Some entries repeat one wording, which the source may state once for all of them. Residues, ends and D or L forms follow the SMILES beside them. No end group written: not given here.

Experiments:
P. aeruginosa ATCC 10145 = test: CFU-assay, P. aeruginosa-cidal activity; format: cell-based, Pseudomonas aeruginosa
S. aureus ATCC 6538 = test: CFU-assay, S. aureus-cidal activity; format: cell-based, Staphylococcus aureus
Outline: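 Bactericidal CFU-assay in nutrient-deficient 10 mM sodium phosphate buffer pH 5.5 with 0.25% glucose, counting surviving colonies across twofold peptide dilutions from 300 μg/ml to 19 ng/ml. Output is minimal bactericidal concentration (e.g. MBC90, MBC100); some peptides also tested at pH 7.0.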

[1] = tested on: Streptococcus pneumoniae ATCC 33400; test: CFU-assay, antimicrobial activity spectrum; format: cell-based
[2] = tested on: Enterococcus faecium DSM 2146; test: CFU-assay, antimicrobial activity spectrum; format: cell-based; conditions: pH 5.5, 0.25% glucose
[3] = tested on: Streptococcus pyogenes ATCC 12344; test: CFU-assay, antimicrobial activity spectrum; format: cell-based
[4] = tested on: Acinetobacter baumannii ATCC 19606; test: CFU-assay, antimicrobial activity spectrum; format: cell-based
[5] = tested on: Escherichia coli ATCC11775; test: CFU-assay, antimicrobial activity spectrum; format: cell-based
[6] = tested on: Proteus mirabilis ATCC 21100; test: CFU-assay, antimicrobial activity spectrum; format: cell-based; conditions: pH 6.0, 0.25% glucose
[7] = tested on: Candida albicans ATCC 24433; test: CFU-assay, Candida albicans-cidal activity; format: cell-based
Method: Thus, within the present invention, the antimicrobial activity is generally measured in nutrient deficient 10 mM sodium phosphate buffer pH 5.5, containing 0.25% glucose, using the CFU-assay according to Steinberg and Lehrer, 1997 (supra), unless otherwise indicated. The CFU-assay allows determination of the minimal bactericidal concentration (MBC, e.g., MBC90 and MBC100; i.e. the concentration of compound required to achieve a specified reduction in bacterial cell number (microbial death or killing)). […]
HR 1-17 affects C. albicans ATCC 24433 with highest activity at pH 5.5 in the absence of TSB in the medium (see Tables 12, 24). […] Furthermore, the substitution of any of the Arg residues by Gly leads to a dramatic reduction or loss of candidacidal activity (see Table 24).

[8] = tested on: Burkholderia cepacia ATCC 25416; test: CFU-assay, Burkholderia cepacia-cidal activity; format: cell-based
[9] = tested on: Staphylococcus epidermidis ATCC 14990; test: CFU-assay, antimicrobial activity spectrum; format: cell-based
[10] = tested on: Klebsiella pneumoniae ATCC 13883; test: CFU-assay, Klebsiella pneumoniae-cidal activity; format: cell-based
[11] = tested on: Propionibacterium acnes ATCC 6919; test: CFU-assay, antimicrobial activity spectrum; format: cell-based
[12] = tested on: Prevotella oralis ATCC 33321; test: CFU-assay, antimicrobial activity spectrum; format: cell-based; conditions: pH 7.3, 1% TSB
[13] = tested on: Staphylococcus hominis ATCC 27844; test: CFU-assay, antimicrobial activity spectrum; format: cell-based; conditions: pH 7.3, 1% TSB
[14] = tested on: Salmonella typhimurium ATCC 13311; test: CFU-assay, antimicrobial activity spectrum; format: cell-based; conditions: pH 7.3, 1% TSB
[15] = tested on: Moraxella osloensis RV A2/2001; test: CFU-assay, antimicrobial activity spectrum; format: cell-based; conditions: pH 7.3, 1% TSB
[16] = tested on: Corynebacterium simulans DSM 44415; test: CFU-assay, antimicrobial activity spectrum; format: cell-based; conditions: pH 7.3, 1% TSB
[17] = tested on: Lactobacillus crispatus DSM 20584; test: CFU-assay, antimicrobial activity spectrum; format: cell-based; conditions: pH 7.3, 1% TSB
[18] = tested on: Peptostreptococcus magnus ATCC 15794; test: CFU-assay, antimicrobial activity spectrum; format: cell-based; conditions: pH 7.3, 1% TSB
[19] = tested on: methicillin-resistant S. aureus strain (ATCC 43300); format: cell-based, Staphylococcus aureus; conditions: Mueller-Hinton medium, 37° C., 18 h, resazurin
Method: Furthermore, sensitivity of a methicillin-resistant S. aureus strain (ATCC 43300) was investigated for palmitoylated CIDAMPs in a microtiter plate screening model, with incubation in Mueller-Hinton medium at 37° C. for 18 h using resazurin as a marker for cell viability.
(§1) A sample of each culture was then diluted 40-fold in fresh broth and incubated at 37° C. for 1.5-3 h. […] All the plates were covered and incubated at 37° C. for 18 h.
(§2) Inhibition of bacterial growth was determined using resazurin as a marker for cell viability. Resazurin was added to each well, at 0.001% final concentration, and plates incubated at 37° C. for 2 h. Fluorescence intensity was measured, using F (top read), ex 560/10 nm, em 590/10 nm, using a Tecan M1000 Pro monochromator plate reader.

[20] = tested on: multidrug-resistant K. pneumoniae ATCC 700603; format: cell-based, Klebsiella pneumoniae; conditions: Mueller-Hinton medium, pH 7.4, 18 h incubation
Method: The Gram-negative opportunistic pathogen K. pneumoniae is responsible for a spectrum of community-acquired and nosocomial infections and typically infects patients with indwelling medical devices, on which this microorganism is able to grow as a biofilm.
as §1, §2

C. neoformans = conditions: standard conditions at pH 7.4; activity at concentration <32 pg/ml

## GRHGSGLGHSSSHGQHGSGSGR [HR 1-18]
P. aeruginosa ATCC 10145; pH 5.0, 0.25% glucose
  MBC90: 0.038 µg/mL
  MBC100: 0.15 µg/mL
P. aeruginosa ATCC 10145; pH 5.5
  P. aeruginosa MBC90: 0.009 µM
  P. aeruginosa MBC100: 0.036 µM
P. aeruginosa ATCC 10145; pH 5.5, 0.25% glucose
  MBC100: 0.15 µg/mL
P. aeruginosa ATCC 10145; pH 5.5, 0.25% glucose, 1% TSB
  MBC90: 9.38 µg/mL
  MBC100: 1.18 µg/mL
P. aeruginosa ATCC 10145; pH 5.5, 0.25% glucose, 3% TSB
  MBC90: 300 µg/mL
  MBC100: 37.5 µg/mL
P. aeruginosa ATCC 10145; pH 5.5, 0.25% glucose, 10% TSB
  MBC90: >300 µg/mL
  MBC100: >300 µg/mL
P. aeruginosa ATCC 10145; pH 5.5, 1% TSB
  MBC90: 0.15 µg/mL
  MBC100: 2.35 µg/mL
P. aeruginosa ATCC 10145; pH 6.0, 0.25% glucose
  MBC90: 2.35 µg/mL
  MBC100: 18.75 µg/mL
P. aeruginosa ATCC 10145; pH 6.5, 0.25% glucose
  MBC90: 18.75 µg/mL
  MBC100: >300 µg/mL
P. aeruginosa ATCC 10145; pH 7.0, 0.25% glucose
  MBC90: >300 µg/mL
  MBC100: >300 µg/mL
P. aeruginosa ATCC 10145; pH 7.0 and 7.5
  P. aeruginosa-cidal activity (in words): absent
P. aeruginosa ATCC 10145; pH 7.5, 0.25% glucose
  MBC90: >300 µg/mL
  MBC100: >300 µg/mL
S. aureus ATCC 6538; pH 5.5
  S. aureus MBC90: >143 µM
  S. aureus MBC100: >143 µM
S. aureus ATCC 6538; pH 5.5, 0.25% glucose
  MBC90: >300 µg/mL
  MBC100: >300 µg/mL
S. aureus ATCC 6538; pH 5.5, 1% TSB
  MBC90: >300 µg/mL
  MBC100: >300 µg/mL
[1]; pH 6.5, 0.25% glucose
  MBC90: >300 µg/mL
  MBC100: >300 µg/mL
[2]
  MBC90: 150 µg/mL
  MBC100: >300 µg/mL
[3]; pH 6.0, 0.25% glucose
  MBC90: >300 µg/mL
  MBC100: >300 µg/mL
[4]
  MBC90: 0.56 µM
[4]; pH 6.0, 0.25% glucose
  MBC90: 1.18 µg/mL
  MBC100: 37.5 µg/mL
[5]; pH 5.5, 1% TSB
  MBC90: >300 µg/mL
  MBC100: >300 µg/mL
[6]
  MBC90: >300 µg/mL
  MBC100: >300 µg/mL
[7]
  MBC90: 6.6 µM
[7]; pH 5.5, 0.25% glucose
  MBC90: 18.8 µg/mL
  MBC100: 150 µg/mL
[7]; pH 5.5, 1% TSB
  MBC90: 150 µg/mL
  MBC100: >300 µg/mL
[8]; pH 5.5, 0.25% glucose
  MBC90: >300 µg/mL
  MBC100: >300 µg/mL

## CCCCCCCCCCCCCCCC(=O)NCC(=O)N[C@@H](CCCNC(=N)N)C(=O)N[C@@H](CCCNC(=N)N)C(=O)NCC(=O)NCC(=O)N[C@@H](CCCNC(=N)N)C(=O)NCC(=O)NCC(=O)N[C@@H](CCCNC(=N)N)C(=O)NCC(=O)N[C@@H](CCCNC(=N)N)C(=O)NCC(=O)N[C@@H](CCCNC(=N)N)C(=O)O [Pal-GR13] (HELM PEPTIDE1{[CCCCCCCCCCCCCCCC(=O)[*:2]].G.R.R.G.G.R.G.G.R.G.R.G.R}$$$$V2.0)
P. aeruginosa ATCC 10145; pH 5.5
  P. aeruginosa MBC90: 0.024 µM
  P. aeruginosa MBC100: 0.188 µM
P. aeruginosa ATCC 10145; pH 5.5, 0.25% glucose
  MBC90: 0.038 µg/mL (≈ 0.0239 µM)
  MBC100: 0.3 µg/mL (≈ 0.188 µM)
P. aeruginosa ATCC 10145; pH 5.5, 0.25% glucose, listed as palmitoyl-GR13
  MBC90: 0.075 µg/mL (≈ 0.0471 µM)
P. aeruginosa ATCC 10145; pH 7.3
  P. aeruginosa MBC90: 0.18 µM
  P. aeruginosa MBC100: 0.740 µM
P. aeruginosa ATCC 10145; pH 7.3, 1% TSB
  MBC90: 0.3 µg/mL (≈ 0.188 µM)
  MBC100: 1.18 µg/mL (≈ 0.741 µM)
S. aureus ATCC 6538; pH 5.5
  S. aureus MBC90: 0.047 µM
  S. aureus MBC100: 0.192 µM
S. aureus ATCC 6538; pH 5.5, 0.25% glucose
  MBC90: 0.075 µg/mL
  MBC100: 0.3 µg/mL
S. aureus ATCC 6538; pH 5.5, 0.25% glucose (text)
  MBC90: 0.05 µM
  MBC100: 0.2 µM
S. aureus ATCC 6538; pH 5.5, 1% TSB
  MBC90: 0.3 µg/mL
  MBC100: 4.7 µg/mL
S. aureus ATCC 6538; pH 7.3
  S. aureus MBC90: 0.19 µM
  S. aureus MBC100: 2.95 µM
S. aureus ATCC 6538; pH 7.3, 1% TSB
  MBC90: 0.3 µg/mL
  MBC100: 4.7 µg/mL
[1]; pH 7.3, 1% TSB
  MBC90: 2.35 µg/mL (≈ 1.48 µM)
  MBC100: 4.7 µg/mL (≈ 2.95 µM)
[3]; pH 7.3, 1% TSB
  MBC90: 0.15 µg/mL (≈ 0.0942 µM)
  MBC100: 0.3 µg/mL (≈ 0.188 µM)
[5]; pH 5.5, 0.25% glucose
  MBC90: 0.15 µg/mL (≈ 0.0942 µM)
  MBC100: 0.59 µg/mL (≈ 0.37 µM)
[5]; pH 7.3, 1% TSB
  MBC90: 1.18 µg/mL (≈ 0.741 µM)
  MBC100: 2.35 µg/mL (≈ 1.48 µM)
[7]; pH 5.5, 0.25% glucose
  MBC90: 0.59 µg/mL
  MBC100: 2.35 µg/mL (≈ 1.48 µM)
[7]; pH 7.3, 1% TSB
  MBC90: 4.7 µg/mL
[8]; pH 5.5, 0.25% glucose
  MBC90: >300 µg/mL
  MBC100: >300 µg/mL
[8]; pH 7.3, 0.25% glucose
  MBC90: 4.7 µg/mL (≈ 2.95 µM)
  MBC100: 9.375 µg/mL (≈ 5.89 µM)
[9]; pH 5.5, 0.25% glucose
  MBC90: 9.38 µg/mL (≈ 5.89 µM)
  MBC100: 150 µg/mL (≈ 94.2 µM)
[9]; pH 7.3, 1% TSB
  MBC90: 0.59 µg/mL (≈ 0.37 µM)
  MBC100: 4.7 µg/mL (≈ 2.95 µM)
[10]; pH 5.5
  MBC90: 0.063 µM
  MBC100: 189 µM
[10]; pH 5.5, 0.25% glucose
  MBC90: 0.15 µg/mL
  MBC100: 0.3 µg/mL
[10]; pH 7.3, 1% TSB
  MBC90: 1.18 µg/mL
  MBC100: 1.18 µg/mL
[11]; pH 5.5, 0.25% glucose
  MBC90: 0.3 µg/mL (≈ 0.188 µM)
  MBC100: 0.59 µg/mL (≈ 0.37 µM)
[11]; pH 7.3, 0.25% glucose
  MBC90: 0.59 µg/mL (≈ 0.37 µM)
  MBC100: 2.35 µg/mL (≈ 1.48 µM)
[11]; pH 7.3, 1% TSB
  MBC90: 1.18 µg/mL (≈ 0.741 µM)
  MBC100: 4.7 µg/mL (≈ 2.95 µM)
[12]
  MBC90: 9.38 µg/mL (≈ 5.89 µM)
[13]
  MBC90: 1.18 µg/mL (≈ 0.741 µM)
  MBC100: 4.7 µg/mL (≈ 2.95 µM)
[14]
  MBC90: 2.35 µg/mL (≈ 1.48 µM)
  MBC100: 2.35 µg/mL (≈ 1.48 µM)
[15]
  MBC90: 0.59 µg/mL (≈ 0.37 µM)
  MBC100: 4.7 µg/mL (≈ 2.95 µM)
[16]
  MBC90: 0.59 µg/mL (≈ 0.37 µM)
  MBC100: 2.35 µg/mL (≈ 1.48 µM)
[17]
  MBC90: 9.38 µg/mL (≈ 5.89 µM)
  MBC100: 75 µg/mL (≈ 47.1 µM)
[18]
  MBC90: 4.7 µg/mL (≈ 2.95 µM)
[19]
  killing of MRSA strain (in words): able to kill this MRSA-strain at low μg/ml or high ng/ml concentration
[20]
  concentration able to eradicate the strain: 32 µg/mL
C. neoformans
  Antifungal activity, C. neoformans ATCC 208821: A (A-active)
